In all, about 320,000 compounds went through this assay and about 200 (0.062%) were called active. Inconclusive means that the source gave no clear call. Such entries were picked first, then a sample of the others. Calls follow the shape of the dose curve; as a rule, active = well fitted activation curve with a large enough effect; inconclusive = small, poorly fitted or top-dose-only effect; inactive = no such curve, though single readings can be large or run the other way. Potencies of inconclusive entries are left out as doubtful fits.
Assay: qHTS assay for re-activators of p53 using a Luc reporter; also: nearly all actives have a fitted effect of over 45% in size; as to activity change, positive = activation: % of control where 0% means no effect
Conditions: H1299 p53-A138V BP100-luciferase reporter, luminescence, 24 h; series mostly up to 92.2 µM; activity change, positive = activation: at the top concentration
Method in brief: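 p53-null H1299 cells stably carrying temperature-sensitive p53-A138V and a BP100-luciferase reporter were pinned with compounds (4-point, 1:5 series) and held 24 hrs at 37 deg C. Luminescence was read 10 min after detection reagent.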
With CCOC(=O)c1cccc(COC(=O)c2cccc(-c3nnc(-c4ccccc4)o3)c2)c1 the Potency was inconclusive [activator, partial curve, poor fit]. With O=C(CCSc1ccccc1)NC1CCCC1 the Potency was inconclusive [activator, single point]. With CCCCCC(=O)Nc1cccc(C2=NOC3(C2)C[C@@H](C(N)=O)N(C(=O)CC(c2ccccc2)c2ccccc2)C3)c1 (stereo partly specified) the “activity change, positive = activation” value was inactive: 0.64%. For O=C(OCc1cc2ccccc2[nH]c1=O)c1ccccc1, the “activity change, positive = activation” value was inactive: 1.39%. For CC1CCc2nc3sc4c(c3c(N)c2C1)CCCC4 (stereo unspecified), the Potency was inconclusive [activator, full curve, poor fit]. For Cc1cccc(C)c1NC(=O)c1cccc2c1C(=O)N(C1CCCCC1)C2, the “activity change, positive = activation” value was inactive: -4.37%. For CN(C(=O)C1CCCO1)c1nnc(-c2ccccn2)s1 (stereo unspecified), the Potency was inconclusive [activator, partial curve, poor fit]. In the case of Cc1cccc(C2=NOC(=O)/C2=C\c2ccccc2F)c1, the Potency is reported as inconclusive [activator, partial curve, poor fit]. For O=C(NCc1cccnc1)C(=O)NCC1OCCCN1S(=O)(=O)c1ccc(F)cc1 (stereo unspecified), the Potency was inconclusive [activator, single point]. In the case of CCS(=O)(=O)NCCc1csc(-c2ccccc2)n1, the Potency is reported as inconclusive [activator, partial curve, poor fit]. With O=C(NC1CCCCC1)c1cc(S(=O)(=O)N2CCCC2)ccc1Cl the “activity change, positive = activation” value was inactive: -6.64%. With COc1cc2c(cc1OC)CN(C(=O)CN1CCN(S(=O)(=O)c3ccccc3)CC1)CC2 the “activity change, positive = activation” value was inactive: -1.24%. For C(=C\n1nnc2ccccc21)/c1ccc[nH]1, the Potency was inconclusive [activator, single point]. With O=C(NCc1ccccc1)C(=O)Nc1nc(C23CC4CC(CC(C4)C2)C3)cs1 the “activity change, positive = activation” value was inactive: -0.523%. In the case of O=C(Cc1ccc(Cl)c(Cl)c1)NC1CCCCCC1, the Potency is reported as inconclusive [activator, partial curve, poor fit]. For COc1ccc(CNc2nc(NCc3ccc(OC)cc3)c3[nH]cnc3n2)cc1, the “activity change, positive = activation” value was inactive: -0.915%. In the case of CCC(c1nnnn1Cc1ccc2c(c1)OCO2)N1CCN(c2ccc(OC)cc2)CC1 (stereo unspecified), the “activity change, positive = activation” value is reported as inactive: -13.3%. In the case of O=C(Nc1nc2ccccc2[nH]1)c1cc(F)cc(F)c1, the Potency is reported as inconclusive [activator, partial curve, poor fit]. In the case of Cc1ccc(CNC(=O)c2ccccc2NS(=O)(=O)c2ccc(Cl)nc2)cc1, the “activity change, positive = activation” value is reported as inactive: -13.7%. In the case of O=C(NCCc1ccccc1)c1ccc(-n2cnnn2)cc1, the Potency is reported as inconclusive [activator, partial curve, poor fit]. In the case of COc1ccc(-c2cc(C(=O)N3CCOCC3)c3ccccc3n2)cc1OC, the “activity change, positive = activation” value is reported as inactive: -2.24%. With CCn1c(SCC(=O)c2ccc(O)c(O)c2)nnc1-c1ccccc1 the Potency was inconclusive [activator, full curve, poor fit]. With CCC1Oc2ccccc2C(=O)N(CC(=O)c2ccc3c(c2)OCCO3)C1=O (stereo unspecified) the Potency was inconclusive [activator, partial curve, poor fit]. For CC(C)CC(NS(=O)(=O)c1ccccc1)C(=O)O (stereo unspecified), the “activity change, positive = activation” value was inactive: -2.49%. For O=C(NC(=S)Nc1ccccn1)c1ccco1, the Potency was inconclusive [activator, full curve, poor fit]. In the case of O=C(Cn1cc([N+](=O)[O-])ccc1=O)NC1CCCCC1, the Potency is reported as inconclusive [activator, single point]. With C/C(=N/NC(=O)c1ccco1)c1ccc(NC(=O)c2ccc(F)cc2)cc1 the Potency was inconclusive [activator, partial curve, poor fit]. In the case of CN(C)C(=O)CSc1nnc(C23CC4CC(CC(C4)C2)C3)o1, the Potency is reported as inconclusive [activator, partial curve, poor fit]. For Cc1ccc(NC(=O)C2OCCc3ccccc32)cc1Cl (stereo unspecified), the “activity change, positive = activation” value was inactive: 11.8%. In the case of CC(=O)Nc1ccc(C(=O)COC(=O)c2cccs2)c(F)c1, the Potency is reported as inconclusive [activator, partial curve, poor fit]. In the case of COc1ccc(CCNC(=O)Cc2cccc(C(F)(F)F)c2)cc1OC, the “activity change, positive = activation” value is reported as inactive: -2.41%. For Cc1ccc(-c2ccc(SCC(=O)c3ccccc3)nn2)cc1, the Potency was inconclusive [activator, full curve, poor fit]. For O=C(O)c1ccc(N/N=C/C(Br)=C/c2ccccc2)cc1, the Potency was inconclusive [activator, partial curve, poor fit]. With COc1ccc(Cl)cc1NC(=S)NCCC(c1ccccc1)c1ccccc1 the Potency was inconclusive [activator, full curve, poor fit]. For Cc1ccc(N=C2NC(=O)/C(=C\c3cccs3)S2)cc1C, the Potency was inconclusive [activator, single point]. For Cc1ccc(CCNC(=O)C2CCC(=O)N(Cc3ccccc3F)C2)o1 (stereo unspecified), the Potency was inconclusive [activator, partial curve, poor fit]. In the case of Cc1ccc(C)c(NC(=S)NC(NC(=O)/C=C/c2ccccc2)C(Cl)(Cl)Cl)c1 (stereo unspecified), the “activity change, positive = activation” value is reported as inactive: -22.3%. In the case of O=C(N1CCCCC1)N1CCN(C(c2ccccc2)c2ccccc2)CC1, the “activity change, positive = activation” value is reported as inactive: 0.245%. For Nc1nnc(SCc2cccc(C(F)(F)F)c2)s1, the Potency was inconclusive [activator, partial curve, poor fit]. In the case of CCN1c2ccccc2-c2nc3ccccc3n2C1c1ccccn1 (stereo unspecified), the “activity change, positive = activation” value is reported as inactive: -14.8%. In the case of COCC(=O)n1nc(-c2ccccc2)nc1NCc1ccc(F)cc1, the Potency is reported as inconclusive [activator, partial curve, poor fit]. For Cc1ccc(CN2CCN(/N=C/c3sccc3C)CC2)c(C)c1, the “activity change, positive = activation” value was inactive: 12.5%. In the case of Cc1ccc(NC(=O)c2cc(-n3cnnc3)ccc2Cl)cc1, the “activity change, positive = activation” value is reported as inactive: -1.64%. With O=Cc1cccc(Oc2ncccn2)c1 the “activity change, positive = activation” value was inactive: 4.77%. In the case of COC(=O)[C@]1(C)N[C@H](CN(C)S(=O)(=O)c2ccc(OC)cc2)[C@@H]2C(=O)N(C)C(=O)[C@@H]21, the Potency is reported as inconclusive [activator, partial curve, poor fit]. In the case of CCn1c(SCC(=O)Nc2ccc(C(C)=O)cc2)nc2nc3c(cc2c1=O)CCCC3, the Potency is reported as inconclusive [activator, single point].
Potency is read from the fitted curve at half-maximal effect; tags tell the direction and shape of the fitted curve.
